This sample is rich in variants without activity. Bounds are passed on as bounds.

To fix the notation:
B1: TPR 5TU (parent)
chain: GGAUCUUCUCGAUCUAACAAAAAAGACAAAUCUGCCACAAAGCUUGAGAGCAUCUUCGGAUGCAGAGGCGGCAGCCUUCGGUGGCGCGAUAGCGCCAACGUUCUCAACUAUGACACGCAAAACGCGUGCUCCGUUGAAUGGAGUUUAUCAUG

In the series the parent is B1. The experiment in a line: polymerase ribozyme fitness, log enrichment relative to wild type (log ratio); higher = more active; in vitro selection for triplet polymerase activity. In short, it runs like this: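 For each subunit of a heterodimeric triplet polymerase ribozyme, a mutant library was built by PCR and transcribed, then taken through a single in vitro selection round in triplicate. Selection involved annealing to a biotinylated primer, the partner subunit and triplets, incubation frozen at −7 °C, gel excision of extended constructs, capture on streptavidin beads and RT-PCR. Genotypes were retained after Illumina sequencing of inputs and outputs only with ≥10 input reads and ≥1 read in each output. Fitness is defined as the logarithm of a genotype's enrichment relative to wild-type enrichment, using inverse-variance-weighted averages across replicates, with the logarithm taken to base 2.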
For A29G G84U G117A, the “polymerase ribozyme fitness (log ratio)” value is not above -4.2.

For A29U A64U C72U A122G U139A, the “polymerase ribozyme fitness (log ratio)” value was not above -4.2.

In the case of A29G G84A C99U A106C C116A U139C U151A, the “polymerase ribozyme fitness (log ratio)” value was not above -4.2.

As to A29U C99A, the “polymerase ribozyme fitness (log ratio)” value is -4.17.

In the case of A29C A89G C95G U139C G140A G141U A142C, the “polymerase ribozyme fitness (log ratio)” value was not above -4.2.

On to A30C G74A G81C C96A, for which the “polymerase ribozyme fitness (log ratio)” value was not above -4.2.

In the case of A29C C57A G68A G88C C114U G117C A122G, the “polymerase ribozyme fitness (log ratio)” value was not above -4.2.

Turning to A29U G65A A121G G141U, the “polymerase ribozyme fitness (log ratio)” value is not above -4.2.

With A29C C36G C38U A39U G62A G83C U134C, the “polymerase ribozyme fitness (log ratio)” value is not above -4.2.

Turning to A29U G81C C118G, the “polymerase ribozyme fitness (log ratio)” value was not above -4.2.

Take A29U A49G C54G G59U A91U C96A G117U A142U: the “polymerase ribozyme fitness (log ratio)” value was not above -4.2.

In the case of A29U U56A G58C G68U G86C C95G, the “polymerase ribozyme fitness (log ratio)” value was not above -4.2.

On to A29U C51U U55A C57A U139A, for which the “polymerase ribozyme fitness (log ratio)” value is not above -4.2.

Take A29G U56G G86U G141C G143U: the “polymerase ribozyme fitness (log ratio)” value is not above -4.2.

With A29G C57G C63A A64G A73G C96G G133C U145A, the “polymerase ribozyme fitness (log ratio)” value is not above -4.2.

In the case of A29U G81U G92C C116G G140A U148C, the “polymerase ribozyme fitness (log ratio)” value is not above -4.2.

Take A29C C87G G117A: the “polymerase ribozyme fitness (log ratio)” value is not above -4.2.

With A29G U55A C114A G141U, the “polymerase ribozyme fitness (log ratio)” value was not above -4.2.

Regarding A30C C32U C38G A49G C99G C125G, the “polymerase ribozyme fitness (log ratio)” value is not above -4.2.

Take A29C C43U C63A U78G G81A G94U C108U: the “polymerase ribozyme fitness (log ratio)” value was not above -4.2.

In the case of A29U G74A G86U C96A A106C, the “polymerase ribozyme fitness (log ratio)” value was not above -4.2.

For the variant A29G A30C G86U A137U, the “polymerase ribozyme fitness (log ratio)” value is not above -4.2.

Take A29G A52C C85A U90C C95G A97G C118A A138C G143U: the “polymerase ribozyme fitness (log ratio)” value was not above -4.2.

As for A29G G59C C76A C95G U102G G136A, the “polymerase ribozyme fitness (log ratio)” value was not above -4.2.

As for A30G A39C U55G U82C G136U, the “polymerase ribozyme fitness (log ratio)” value is not above -4.2.

With A29U G124A G141C, the “polymerase ribozyme fitness (log ratio)” value is not above -4.2.

Turning to A29G A52G C54G C87U G143A, the “polymerase ribozyme fitness (log ratio)” value is not above -4.2.

With A29G C38U U53G C85G A98U C108A G128U, the “polymerase ribozyme fitness (log ratio)” value is -3.97.

Regarding A29U A41U A47C C114G C132U, the “polymerase ribozyme fitness (log ratio)” value is not above -4.2.

For the variant A30C A47C A49C A60G G81U C95G A119U A150C, the “polymerase ribozyme fitness (log ratio)” value was not above -4.2.

Take A29G A47U A49U G94A C131U: the “polymerase ribozyme fitness (log ratio)” value is not above -4.2.

In the case of A29U U44A G48A G84A, the “polymerase ribozyme fitness (log ratio)” value was not above -4.2.

For the variant A29U A30U A37U A47G G50C A97U G100U A106C, the “polymerase ribozyme fitness (log ratio)” value is not above -4.2.

As to A29C U145C, the “polymerase ribozyme fitness (log ratio)” value is not above -4.2.

As to A30C A37C A49C A52C C57G G83A A115U G143C, the “polymerase ribozyme fitness (log ratio)” value was not above -4.2.

In the case of A30G A41U U135A A137U, the “polymerase ribozyme fitness (log ratio)” value was not above -4.2.

Regarding A30C G48C A66G C75U A121C, the “polymerase ribozyme fitness (log ratio)” value is not above -4.2.

A30C C36U C57G C76A C87U U145A: the “polymerase ribozyme fitness (log ratio)” value was not above -4.2.

In the case of A30C A47G A52U G94A C105A G133C G140A A142G, the “polymerase ribozyme fitness (log ratio)” value was not above -4.2.

With A29G A89U C96U A115C A121C G143U, the “polymerase ribozyme fitness (log ratio)” value is not above -4.2.

As for A29U C87U A122U U145C, the “polymerase ribozyme fitness (log ratio)” value was -3.85.

Consider A29U G83A C85U C105U, for which the “polymerase ribozyme fitness (log ratio)” value was not above -4.2.

Regarding A29G G50U C57U C69U G94U C114A, the “polymerase ribozyme fitness (log ratio)” value was not above -4.2.

Turning to A29U G80C C95A U102G C105U, the “polymerase ribozyme fitness (log ratio)” value is not above -4.2.

Take A29G U90G A122U A142U C149G: the “polymerase ribozyme fitness (log ratio)” value was not above -4.2.

With A29G C96A, the “polymerase ribozyme fitness (log ratio)” value is -3.46.

As to A29G A47C G80U U101A A107U U127C, the “polymerase ribozyme fitness (log ratio)” value is not above -4.2.

Take A29U A41G A91U: the “polymerase ribozyme fitness (log ratio)” value was not above -4.2.

On to A29G C32A C38U U55A G86A U104G G141U C149U, for which the “polymerase ribozyme fitness (log ratio)” value was not above -4.2.

On to A29C U33G A40U G80U G94U U102C G143A U151A, for which the “polymerase ribozyme fitness (log ratio)” value is -3.89.

With A29U U61A A91C C96A G128C, the “polymerase ribozyme fitness (log ratio)” value was not above -4.2.

In the case of A29G C51A U78G A91G U101G C132U A142U U145C, the “polymerase ribozyme fitness (log ratio)” value is not above -4.2.

As for A29C U102A, the “polymerase ribozyme fitness (log ratio)” value is not above -4.2.

As to A29C C54U C79G C116A A142C, the “polymerase ribozyme fitness (log ratio)” value was not above -4.2.

Consider A29U C57G C95U, for which the “polymerase ribozyme fitness (log ratio)” value is not above -4.2.

Consider A29U G34U G65C U101A A106U, for which the “polymerase ribozyme fitness (log ratio)” value was not above -4.2.

Consider A30C U44G A47C U61G A97U, for which the “polymerase ribozyme fitness (log ratio)” value was not above -4.2.

With A30G A40G U45G C79G A89C G94U U145A, the “polymerase ribozyme fitness (log ratio)” value is not above -4.2.

As to A29U A73C A115G C125A C132G G140U U144G, the “polymerase ribozyme fitness (log ratio)” value was not above -4.2.

On to A29G G88U G126A, for which the “polymerase ribozyme fitness (log ratio)” value is not above -4.2.

For A30C C35U G50U G65U G94A U146G, the “polymerase ribozyme fitness (log ratio)” value is not above -4.2.

A29G C51U C96G: the “polymerase ribozyme fitness (log ratio)” value was not above -4.2.

Regarding A29G C51G G84A U90A A119U G124C, the “polymerase ribozyme fitness (log ratio)” value was not above -4.2.

Take A30C A64U G65A G70A G84U A91C C103U G136C C149G: the “polymerase ribozyme fitness (log ratio)” value is not above -4.2.

As for A29C U56A A73G C79G, the “polymerase ribozyme fitness (log ratio)” value was not above -4.2.

Take A30C A66G C96U G140U A142C: the “polymerase ribozyme fitness (log ratio)” value was not above -4.2.

Turning to A29U G83U A89G C116A A150G, the “polymerase ribozyme fitness (log ratio)” value was not above -4.2.

In the case of A30C G59C A60C C93A C99U C114A, the “polymerase ribozyme fitness (log ratio)” value is not above -4.2.

For the variant A29C U44G U55A G68A G71U G80A C93A A98U A138C, the “polymerase ribozyme fitness (log ratio)” value is not above -4.2.

Consider A29C C35U G50C G58U U61G C96A U134A, for which the “polymerase ribozyme fitness (log ratio)” value was not above -4.2.

Regarding A29G U55G U56A G68A C96U, the “polymerase ribozyme fitness (log ratio)” value was not above -4.2.

As for A30C C96A U135A A137U, the “polymerase ribozyme fitness (log ratio)” value is not above -4.2.

Turning to A29G G84A U144G, the “polymerase ribozyme fitness (log ratio)” value was not above -4.2.

As for A29C C54U C85G G86A C95G U139G C149G, the “polymerase ribozyme fitness (log ratio)” value is not above -4.2.

A30C A142C U144C: the “polymerase ribozyme fitness (log ratio)” value is not above -4.2.

For A29C G50C A64C C93G U102A, the “polymerase ribozyme fitness (log ratio)” value is not above -4.2.

Consider A29U G50A G58C A60C G88A C116G U139A G141C G143C, for which the “polymerase ribozyme fitness (log ratio)” value is -3.79.

In the case of A29G C57G A113C A138G, the “polymerase ribozyme fitness (log ratio)” value is not above -4.2.

A29G G68U G83C G86A U90C G141A U144G: the “polymerase ribozyme fitness (log ratio)” value is not above -4.2.

Turning to A30C A66G U77G C95A, the “polymerase ribozyme fitness (log ratio)” value is not above -4.2.

For the variant A29U U53A U56A A64U U77C A98G C103G U148C, the “polymerase ribozyme fitness (log ratio)” value was not above -4.2.

Regarding A29G A52G, the “polymerase ribozyme fitness (log ratio)” value was -4.08.

For A29U U55G G68U C72G G84U C87U C116A C131U, the “polymerase ribozyme fitness (log ratio)” value was not above -4.2.
